One may read the IC50 as the concentration that gives 50% inhibition.

Experimental findings from patent US20250296936A1, “SARS-COV2 MAIN PROTEASE INHIBITORS” (Gilead Sciences, Inc., priority 2024, published 2025) are described below.

In one assay the target is recombinant SARS-CoV-2 Main protease (Mpro) (Severe acute respiratory syndrome coronavirus 2, UniProt P0DTD1). The assay can be described thus: Cov Mpro Biochemical IC50 Assay. Particulars: 7.5 nM Mpro, fluorogenic peptide substrate 40 μM, 20 min pre-incubation; read-out: MPro IC50.
For `COc1cc(-c2cc3c(o2)c(=O)n(-c2cncc4ccccc24)c(=O)n3CCC#N)c(Cl)cc1F` (single isomer, unassigned) [Example 59, 3-[6-(2-chloro-4-fluoro-5-methoxy-phenyl)-3-(4-isoquinolyl)-2,4-dioxo-furo[3,2-d]pyrimidin-1-yl]propanenitrile], the IC50 is below 3.75 nM.
Regarding `COc1cc(-c2cc3c(o2)c(=O)n(-c2cncc4ccccc24)c(=O)n3CCC#N)c(Cl)cc1F` (single isomer, unassigned) [Example 60, 3-[6-(2-chloro-4-fluoro-5-methoxy-phenyl)-3-(4-isoquinolyl)-2,4-dioxo-furo[3,2-d]pyrimidin-1-yl]propanenitrile], the half-maximal inhibitory concentration (IC50) came out at 59.6 nM.
As for `Cn1ncc2cncc(-n3c(=O)c4oc(-c5ccccc5Cl)cc4n(CCC#N)c3=O)c21` (single isomer, unassigned) [Example 61, 3-[6-(2-chlorophenyl)-3-(1-methylpyrazolo[4,3-c]pyridin-7-yl)-2,4-dioxo-furo[3,2-d]pyrimidin-1-yl]propanenitrile], the IC50 is 3.79 nM.
`Cn1ncc2cncc(-n3c(=O)c4oc(-c5ccccc5Cl)cc4n(CCC#N)c3=O)c21` (single isomer, unassigned) [Example 62, 3-[6-(2-chlorophenyl)-3-(1-methylpyrazolo[4,3-c]pyridin-7-yl)-2,4-dioxo-furo[3,2-d]pyrimidin-1-yl]propanenitrile]: the IC50 worked out at 95.6 nM.
Same read-out and setting: next, `COc1cc(-c2cc3c(o2)c(=O)n(-c2cncc4cnn(C)c24)c(=O)n3CCC#N)c(Cl)cc1F` (single isomer, unassigned) [Example 63, 3-[6-(2-chloro-4-fluoro-5-methoxy-phenyl)-3-(1-methylpyrazolo[4,3-c]pyridin-7-yl)-2,4-dioxo-furo[3,2-d]pyrimidin-1-yl]propanenitrile]: 4.23 nM; `COc1cc(-c2cc3c(o2)c(=O)n(-c2cncc4cnn(C)c24)c(=O)n3CCC#N)c(Cl)cc1F` (single isomer, unassigned) [Example 64, 3-[6-(2-chloro-4-fluoro-5-methoxy-phenyl)-3-(1-methylpyrazolo[4,3-c]pyridin-7-yl)-2,4-dioxo-furo[3,2-d]pyrimidin-1-yl]propanenitrile]: 60.4 nM; `COc1cc(-c2cc3c(o2)c(=O)n(-c2cncc4cccnc24)c(=O)n3CCC#N)c(Cl)cc1F` (single isomer, unassigned) [Example 65, 3-(6-(2-chloro-4-fluoro-5-methoxyphenyl)-3-(1,6-naphthyridin-8-yl)-2,4-dioxo-3,4-dihydrofuro[3,2-d]pyrimidin-1(2H)-yl)propanenitrile]: below 3.75 nM.
On the same count and under the same terms, next, `COc1cc(-c2cc3c(o2)c(=O)n(-c2cncc4cccnc24)c(=O)n3CCC#N)c(Cl)cc1F` (single isomer, unassigned) [Example 66, 3-(6-(2-chloro-4-fluoro-5-methoxyphenyl)-3-(1,6-naphthyridin-8-yl)-2,4-dioxo-3,4-dihydrofuro[3,2-d]pyrimidin-1(2H)-yl)propanenitrile]: 79.3 nM; `COc1ccc(Cl)c(-c2cc3[nH]c(=O)n(-c4cncc5ccccc45)c(=O)c3o2)c1` [Example 3]: 12.8 nM; `O=c1[nH]c2cc(-c3ccccc3Cl)oc2c(=O)n1-c1cncc2c1CCCC2` [Example 5]: 67.6 nM.
With `Cn1ncc2cncc(-n3c(=O)[nH]c4cc(-c5ccccc5Cl)oc4c3=O)c21` [Example 6], the IC50 worked out at 52.7 nM.
Regarding `O=c1[nH]c2cc(-c3ccccc3Cl)oc2c(=O)n1-c1cncc2ccc(F)cc12` [Example 7], the concentration for half-maximal inhibition (IC50) was 42.2 nM.
On the same count and under the same terms, next, `Cc1cncc(-n2c(=O)[nH]c3cc(-c4ccccc4Cl)oc3c2=O)c1` [Example 8]: 35.9 nM; `Cn1ncc2cncc(-n3c(=O)[nH]c4cc(-c5ccc(F)cc5Cl)oc4c3=O)c21` [Example 9]: 304 nM.
Still for that read-out and setting: then `COc1ccc2cncc(-n3c(=O)[nH]c4cc(-c5ccccc5Cl)oc4c3=O)c2c1` [Example 10], with 33.5 nM; and `COc1cc(-c2cc3[nH]c(=O)n(-c4cnnc(C)c4)c(=O)c3o2)c(Cl)cc1F` [Example 12], with above 50000 nM.
Take `O=c1[nH]c2oc(-c3ccccc3)nc2c(=O)n1-c1cncc2ccccc12` [Example 13]: the half-inhibitory concentration (IC50) came out at 991 nM.
`O=c1[nH]c2oc(-c3ccccc3Cl)cc2c(=O)n1-c1cncc2ccccc12` [Example 14]: the 50% inhibitory concentration (IC50) came to 30.4 nM.
Still for that read-out and setting: next, `COc1cc(-c2cc3[nH]c(=O)n(-c4cccnn4)c(=O)c3o2)c(Cl)cc1F` [Example 15]: 538 nM; `COc1cc(-c2cc3c(o2)c(=O)n(-c2cncc4ccccc24)c(=O)n3CCC#N)c(Cl)cc1F` [Example 16, 3-(6-(2-chloro-4-fluoro-5-methoxyphenyl)-3-(isoquinolin-4-yl)-2,4-dioxo-3,4-dihydrofuro[3,2-d]pyrimidin-1(2H1)-yl)propanenitrile]: 9.59 nM; `COc1cc(-c2cc3c(o2)c(=O)n(-c2cncc4cnn(C)c24)c(=O)n3CCC#N)c(Cl)cc1F` [Example 17]: 10.6 nM.
On the same count and under the same terms, next, `Cn1ncc2cncc(-n3c(=O)c4oc(-c5ccccc5Cl)cc4n(CCC#N)c3=O)c21` [Example 18]: 13.3 nM.
As for `N#CCCn1c(=O)n(-c2cncc3ccccc23)c(=O)c2oc(-c3ccccc3Cl)cc21` [Example 19], the half-maximal inhibitory concentration (IC50) turned out to be 9.39 nM.
In the case of `COc1ccc2cncc(-n3c(=O)c4oc(-c5ccccc5Cl)cc4n(CCC#N)c3=O)c2c1` [Example 20], the IC50 was 14 nM.
Still for that read-out and setting: next, `N#CCCn1c(=O)n(-c2cncc3c2CCCC3)c(=O)c2oc(-c3ccccc3Cl)cc21` [Example 21]: 17.1 nM; `N#CCCn1c(=O)n(-c2cncc3ccc(F)cc23)c(=O)c2oc(-c3ccccc3Cl)cc21` [Example 22]: 18 nM.
The same measure, in the same setting: next, `Cc1cncc(-n2c(=O)c3oc(-c4ccccc4Cl)cc3n(CCC#N)c2=O)c1` [Example 23]: 11.6 nM; `Cn1ncc2cncc(-n3c(=O)c4oc(-c5ccc(F)cc5Cl)cc4n(CCC#N)c3=O)c21` [Example 24]: 31 nM.
Still for that read-out and setting: then `N#CCCn1c(=O)n(-c2cncc3ccccc23)c(=O)c2oc(-c3ccc(F)cc3Cl)cc21` [Example 25], with 24.6 nM; and `COc1cc(-c2cc3c(o2)c(=O)n(-c2cccnn2)c(=O)n3CCC#N)c(Cl)cc1F` [Example 26], with 68.3 nM; and `COc1cc(-c2cc3c(o2)c(=O)n(-c2cnnc(C)c2)c(=O)n3CCC#N)c(Cl)cc1F` [Example 27], with 934 nM.
In the case of `COc1cc(-c2cc3c(o2)c(=O)n(-c2cncc4ccccc24)c(=O)n3C)c(Cl)cc1F` [Example 28, 6-(2-chloro-4-fluoro-5-methoxy-phenyl)-3-(4-isoquinolyl)-1-methyl-furo[3,2-d]pyrimidine-2,4-dione], the IC50 stood at 116 nM.
Turning to `Cn1ncc2cncc(-n3c(=O)c4oc(-c5ccccc5Cl)cc4n(C)c3=O)c21` [Example 29], the IC50 is 387 nM.
In the case of `COc1cc(-c2cc3c(o2)c(=O)n(-c2cncc4cnn(C)c24)c(=O)n3C)c(Cl)cc1F` [Example 30], the IC50 was found to be 273 nM.
Regarding `Cn1c(=O)n(-c2cncc3ccccc23)c(=O)c2oc(-c3ccccc3Cl)cc21` [Example 31], the IC50 is 147 nM.
For `COc1ccc2cncc(-n3c(=O)c4oc(-c5ccccc5Cl)cc4n(C)c3=O)c2c1` [Example 32], the concentration for half-maximal inhibition (IC50) stood at 147 nM.
As for `Cn1c(=O)n(-c2cncc3ccccc23)c(=O)c2cc(-c3ccccc3Cl)oc21` [Example 33], the IC50 came to 43 nM.
Still for that read-out and setting: next, `Cn1c(=O)n(-c2cncc3c2CCCC3)c(=O)c2oc(-c3ccccc3Cl)cc21` [Example 34]: 350 nM.
`Cc1cncc(-n2c(=O)c3oc(-c4ccccc4Cl)cc3n(C)c2=O)c1` [Example 35]: the IC50 was 310 nM.
The same measure, in the same setting: next, `Cn1c(=O)n(-c2cncc3ccccc23)c(=O)c2oc(-c3ccc(F)cc3Cl)cc21` [Example 36]: 1180 nM.
On the same count and under the same terms, then `COc1cc(-c2cc3c(o2)c(=O)n(-c2cncc4ccccc24)c(=O)n3CC#N)c(Cl)cc1F` [Example 37, 2-(6-(2-chloro-4-fluoro-5-methoxyphenyl)-3-(isoquinolin-4-yl)-2,4-dioxo-3,4-dihydrofuro[3,2-d]pyrimidin-1(2H)-yl)acetonitrile], with 5.63 nM; and `Cn1ncc2cncc(-n3c(=O)c4oc(-c5ccccc5Cl)cc4n(CC#N)c3=O)c21` [Example 38], with 5.22 nM.
For the compound `COc1cc(-c2cc3c(o2)c(=O)n(-c2cncc4cnn(C)c24)c(=O)n3CC#N)c(Cl)cc1F` [Example 39], the IC50 worked out at 6.3 nM.
Take `N#CCn1c(=O)n(-c2cncc3ccccc23)c(=O)c2oc(-c3ccccc3Cl)cc21` [Example 40]: the 50% inhibitory concentration (IC50) was 6.6 nM.
With `COc1ccc2cncc(-n3c(=O)c4oc(-c5ccccc5Cl)cc4n(CC#N)c3=O)c2c1` [Example 41], the concentration for half-maximal inhibition (IC50) is 5.94 nM.
Regarding `N#CCn1c(=O)n(-c2cncc3c2CCCC3)c(=O)c2oc(-c3ccccc3Cl)cc21` [Example 42], the IC50 came to 7.66 nM.
For the compound `N#CCn1c(=O)n(-c2cncc3ccc(F)cc23)c(=O)c2oc(-c3ccccc3Cl)cc21` [Example 43], the concentration for half-maximal inhibition (IC50) was found to be 6.98 nM.
Turning to `Cc1cncc(-n2c(=O)c3oc(-c4ccccc4Cl)cc3n(CC#N)c2=O)c1` [Example 45], the IC50 was determined as 4.71 nM.
Same read-out and setting: then `N#CCn1c(=O)n(-c2cncc3ccccc23)c(=O)c2oc(-c3ccc(F)cc3Cl)cc21` [Example 46], with 7.42 nM.

The same assay, now with this note: MPro IC50 (nM), 7.5 nM Mpro, fluorogenic peptide substrate 40 μM, 20 min pre-incubation.
Regarding `O=c1[nH]c2cc(-c3ccccc3Cl)oc2c(=O)n1-c1cncc2ccccc12` [Example 4, 6-(2-chlorophenyl)-3-(4-isoquinolyl)-1H-furo[3,2-d]pyrimidine-2,4-dione], the IC50 turned out to be 92.1 nM.
With `COc1cc(-c2cc3[nH]c(=O)n(-c4cncc5ccccc45)c(=O)c3o2)c(Cl)cc1F` [Example 11, 6-(2-chloro-4-fluoro-5-methoxy-phenyl)-3-(4-isoquinolyl)-1H-furo[3,2-d]pyrimidine-2,4-dione], the 50% inhibitory concentration (IC50) was found to be 45.1 nM.
